Reference: PubChem BioAssay AID1508624 (National Center for Advancing Translational Sciences (NCATS), 2021)
The campaign covered roughly 48,000 compounds. About 120 (0.25%) were called active. Inconclusive results (about 4%) are left out. Calls follow the shape of the dose curve; as a rule, active = well fitted activation curve with a large enough effect; inconclusive = small, poorly fitted or top-dose-only effect, or another doubt; inactive = no such curve, though single readings can be large or run the other way. The list shows a part of the results.

Experiment: Primary qHTS for Identification of Small Molecule Activators of Huntingtin-Antisense Promoter Activity; also: nearly all actives have a fitted effect of over 55% in size
Conditions: HEK293 HTT-AS promoter firefly luciferase reporter, 24 h; series mostly up to 57.5 µM; activity change, positive = activation: at the top concentration
Procedure, shortened: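 Quantitative HTS used concentration series of up to 57.5 uM final on HEK293 luciferase reporter cells, 24 h at 37 degrees C. Readout was Dual-Glo firefly luminescence.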

Activity change, positive = activation, inactive:
O=C(CSc1nc2ccccc2c(=O)n1CCC(=O)NC1CCCCC1)Nc1ccccc1Cl -3.07%
Cc1nn(CCCC(=O)NCc2ccccc2)c(=O)c2nn(-c3ccccc3)c(C)c12 -4.58%
C[C@@H](O)[C@H]1C(=O)N2C(C(=O)O)=C(S[C@@H]3CN[C@H](CNS(N)(=O)=O)C3)[C@H](C)[C@H]12 -7.43%
CCC(=O)N1CCc2cc(S(=O)(=O)NCCC(=O)Nc3ccc(OC)c(Cl)c3)ccc21 -12.9%
O=C(CSc1cn(CC(=O)N2CCCCCC2)c2ccccc12)Nc1ccccc1F -41.5%
CCc1nnc2c(NCc3ccccc3OC)nc3ccccc3n12 -10.3%
CC(C)c1nnc(N2C(=O)c3oc4ccccc4c(=O)c3C2c2cccc(O)c2)s1 (stereo not given) 4.04% [at 11.5 µM, percent change from vehicle, -100% = no light]
CCOc1ccc(CC(=O)Nc2nnc3n2CCS3)cc1 -8.19%
COc1cc2nccc(Oc3ccc(NC(=O)Nc4cc(C)on4)c(Cl)c3)c2cc1OC -43.7%
COc1ccc(C(=O)c2cn(Cc3ccc(C)cc3)c3cc4c(cc3c2=O)OCO4)cc1 -21.2%
O=C(CSc1cn(CC(=O)N2CCCCC2)c2ccccc12)Nc1ccccc1F -21%
COc1ccccc1-c1noc(CSc2nc3ccc(C)cc3[nH]2)n1 -39.3%
COc1cc(NC(=O)CCS(=O)(=O)c2nc(-c3cccs3)cc(C(F)(F)F)n2)cc(OC)c1OC -36.5%
Cc1c(Cl)cccc1NC(=O)CCn1c(=O)c2cccn2c2ccccc21 -14.3%
Cc1ccc2c(CC(=O)Nc3ccccc3C(F)(F)F)coc2c1C -5.61%
CC(CNC(=O)C1CCN(Cc2cc3ccccc3n2Cc2ccccc2)CC1)c1ccccc1 (stereo not given) -26.2%
CCOc1ccccc1NC(=O)CSc1nccn1-c1ccc(Cl)cc1 -13.1%
CO[C@@H]1[C@H](N(C)C(=O)c2ccccc2)C[C@H]2O[C@]1(C)n1c3ccccc3c3c4c(c5c6ccccc6n2c5c31)C(=O)NC4 -30.8%
CN1CCN(C(CNC(=O)C(=O)Nc2ccc(F)cc2F)c2ccc3c(c2)OCO3)CC1 (stereo not given) -1.56%
CCOc1ccc(CCNC(=O)Cn2nnc(-c3ccc(OC)c(OC)c3)n2)cc1OCC -27%
CCOc1cc(CNCCSc2nnnn2-c2ccccc2)cc(Cl)c1OC -38.2%
CC(C)Oc1ccc(CNS(=O)(=O)c2cnc(N)nc2)cc1 -8.08%
CC(C)Cn1cnc2c1c(=O)n(C)c(=O)n2C -11.5%
COc1cc(NC(=O)c2nnn(CC(=O)Nc3ccccc3)c2N)cc(OC)c1 -22.4%
CC(C)(C#N)c1cc(Cn2cncn2)cc(C(C)(C)C#N)c1
O=C(NC1CCCCC1)c1ccc2c(c1)N(Cc1ccccc1)C(=O)c1ccccc1S2 -6.83%
O=C(CN1C(=O)C2(SCC(=O)N2c2ccccc2)c2ccccc21)NCc1ccccc1Cl (stereo not given) -24.4%
CCCc1nn2c(=O)cc(COC(=O)c3ccc(NC(=O)C(C)Oc4ccccc4)cc3)nc2s1 (stereo not given) -9.73%
CCCCNc1nc(Oc2ccc(=O)n(C)n2)nc(N(C)C)n1 1.08%
CSc1nc(-c2ccc(F)cc2)nc2c1Cc1c(CO)cnc(C)c1O2 -7.04%
Cc1ccc(-c2nc3c4ccccc4n(Cc4cccc(Cl)c4)c(=O)n3n2)cc1 -1.88%
CCN1CCN(CCCNC(=O)Cn2nc(C)n3c(cc4cc(C)ccc43)c2=O)CC1 -3.09%
CCc1ccc(S(=O)(=O)c2nnn3c2nc(N2CCCC(C)C2)c2cc(Cl)ccc23)cc1 (stereo not given) -1.51%
COc1ccc(OC)c(CNC(=O)C2COc3ccccc3C2)c1 (stereo not given) -7.67%
CCOC(=O)Cc1ccc(NC(=O)N2CC(CC)Oc3ccccc32)cc1 (stereo not given) -15.7%
COc1ccc(Br)cc1CNC(=O)c1ccc2c(c1)nc1n2CCCCC1 -14.1%
Cc1cccc(CN2C(=O)c3ccccc3S(=O)(=O)c3ccc(C(=O)N4CCN(c5cc(C)ccc5C)CC4)cc32)c1 -16%
CCc1ccc(-c2cc3c(N4CCN(c5ccccc5)CC4)nccn3n2)cc1 11.7%
COc1ccc(N2CCN(C(=O)CCn3cnc4onc(-c5ccc(F)cc5)c4c3=O)CC2)cc1 -42.3%
CC(=O)N/N=C/c1ccc([N+](=O)[O-])o1 3.68%
Cc1cccc(-c2nc3nc(C)cc(N4CCN(c5ccccc5)CC4)n3n2)c1 -6.14%
COc1ccc(NC(=O)N2CCN(c3cc(-c4noc(C)n4)ccc3C)CC2)c(OC)c1 -16.1%
CC(C)(C)C1CCc2c(sc(NC(=O)c3ccncc3)c2C(=O)Nc2ccccc2Cl)C1 (stereo not given) -8.19%
COc1cccc(N2CCN(Cc3nnc(-c4ccc5c(c4)OCO5)o3)CC2)c1 -8.64%
COc1ccc(NS(=O)(=O)c2ccc(NS(=O)(=O)c3ccc4c(c3)OCCO4)cc2)cc1 -29.2%
Cc1c(C(=O)NCc2ccccc2Cl)sc2nc3n(c(=O)c12)CCC3 14.4%
COc1ccc(N(CC(=O)NCc2ccc(C)cc2)S(=O)(=O)c2c(C)[nH]c(=O)[nH]c2=O)cc1 11.3% [at 11.5 µM, percent change from vehicle, -100% = no light]
Cc1cc(C)cc(N2CCn3c2nc2c3c(=O)n(CCc3ccccc3)c(=O)n2C)c1 -4.14%
CCCCC(=O)Nc1ccc(C(=O)OCc2cc(=O)n3nc(C4CC4)sc3n2)cc1 2.03%
COC(=O)C1=C(c2ccccc2)c2ccccc2S(=O)(=O)N1CC(=O)Nc1ccccc1C(F)(F)F -22.1%
COc1ccc(S(=O)(=O)Cc2ccc(C(=O)NC3CCCCC3)o2)cc1 -34%
C=CCN1CCc2nc(N)sc2CC1 -1.39%
Cc1cccc(N2CCN(c3ccc(C(=O)O)cc3NC(=O)c3ccccc3F)CC2C)c1 (stereo not given) -19.7%
Cn1c(=O)n(CCc2ccccc2)c(=O)c2c1nc1n2CCN1c1ccc(Cl)cc1 -6.69%
CC(C(=O)Nc1ccccc1C(F)(F)F)n1nc(-c2ccccc2)c2c(c1=O)CCCC2 (stereo not given) -27.9%
CC(C)CC(=O)Nc1c(C(=O)N2CCN(c3ccccc3F)CC2)oc2ccccc12 -14.8%
Cc1cc(C)c2c(-n3cccc3)c(C(=O)NCCc3ccccc3)sc2n1 -4.36%
CCN(CC)c1ccc(C(=O)NCc2ccc3c(c2)CCN3C(C)=O)cc1 10.3%
CC(=O)c1ccc(N2CCN(C(=O)Nc3cccc(F)c3)CC2)cc1 -21.3%
O=C(Nc1nonc1-c1ccc(Br)cc1)c1ccco1 -20%
Cc1nc2ccccc2n1CCc1nc2c3ccccc3nc(SCC(=O)Nc3ccc(C(C)C)cc3)n2n1 -62.9%
COc1cccc(Cn2cc(S(=O)(=O)c3ccc(C)cc3)c(=O)c3cc4c(cc32)OCO4)c1 19.1%
COc1ccc(NC(=O)c2ccco2)cc1NC(=O)COc1ccc(C)cc1C -26.1%
Cc1ccc(NC(=O)Cc2ccc(NC(=O)N3CCCCc4ccccc43)cc2)cc1 -9.15%
CCCc1ccc(NC(=O)C2CCN(c3cnccn3)CC2)cc1 -25.2%
Cc1cc(Cl)ccc1NC(=O)CN1C(=O)C(=O)c2ccccc21 -11.6%
CSc1cccc(NC(=O)Cn2nnc(C(=O)NCCc3ccccc3)c2N)c1 -6.74%
CCN1CCN(C(c2ccccc2)c2c(O)cc(C)n(CCOC)c2=O)CC1 (stereo not given) -6.12%
Cc1ccc(Cn2c(C(=O)O)c(CNCCc3ccco3)c3ccc(C)cc32)cc1 -18.7%
Cc1cc(C)c(C(=O)Nc2ccccc2)c(SCC(=O)Nc2ccc(Br)cc2C)n1 -23.1%
Cc1c[nH]c2ccccc12 -8.2%
COc1ccc(-n2c(=O)c3ccc(C(=O)NCc4ccc(C)cc4)cc3n(CC(=O)Nc3ccc(C)cc3)c2=O)cc1 -35.7%
CC(=O)c1ccc(N2CCN(C3C(=O)c4ccccc4N3C(C)=O)CC2)cc1 (stereo not given) -11.3%
O=S(=O)(c1ccc(Br)cc1)c1nnn2c1nc(NCc1cccs1)c1sccc12 -13.1%
NC(=O)c1cccc2cn(-c3ccc([C@@H]4CCCNC4)cc3)nc12 -1.33%
COC(=O)[C@]12CCC(C)(C)C[C@@H]1[C@@H]1C(=O)C=C3[C@@]4(C)C=C(C#N)C(=O)C(C)(C)[C@@H]4CC[C@@]3(C)[C@]1(C)CC2 -87.3%
COCCCNC(=O)C1CCN(c2cc(C)nc3c(-c4ccc(OC)c(OC)c4)c(C)nn23)CC1 -6.54%
CCOc1cc(-c2nc(-c3ccc(-c4ccc(OC)cc4)nc3OC)no2)cc(OCC)c1OCC -4.23%
COc1ccc(Cl)cc1NC(=O)c1nn(C)c2c1CS(=O)(=O)c1ccccc1-2 -3.51%
COc1ccccc1NC(=O)CCn1c(=O)oc2cc(Cl)ccc21 -1.98%
COc1ccc(-n2cc(C(=O)NCc3cccc(OC)c3)c3ccccc3c2=O)cc1 -4.19%
CC(C)Oc1ccc(CNC(=O)CCCn2c(=O)c3cccn3c3cccnc32)cc1 -22.9%
O=C(c1ccccc1)C(O)c1ccccc1 (stereo not given) 2.71%
COc1cccc(-c2nnc3n(Cc4ccccc4Cl)c(=O)c4ccccc4n23)c1O -59.1%
O=C(NCc1ccc2c(c1)CCN2C(=O)c1ccncc1)c1ccc(Cl)cc1 -9.33%
Cc1ccc2c(=O)c(C(=O)c3ccccc3)cn(CC(=O)Nc3ccccc3)c2n1 -7.79%
Cc1c(Cl)cccc1NC(=O)CN1C(=O)CCn2nc(-c3cccn3C)cc21 -8.36%
COCCN(CCOC)C(=O)c1cc2c(=O)n3ccccc3nc2n1C -10.9%
CCOC(=O)C(Cc1c[nH]c2ccccc12)NC(=O)COc1ccc(Cl)cc1 (stereo not given) -9.99%
CCn1c(NCc2cccc(Cl)c2)nc2ccccc21 -10.5%
COc1cc(-c2nc3ccc(C)cn3c2Nc2ccc(Cl)cc2)ccc1O -25.3%
O=C(CSc1nc(-c2ccccc2)cn1-c1ccccc1)Nc1ccccc1 -8.47%
COc1cccc(C(=O)NC2=NC(c3ccc(N(C)C)cc3)CC(=O)N2)c1 (stereo not given) 2.98%
O=C(NCCCN1CCCCC1)c1cc(Sc2ccc(Cl)cc2)nc2ccccc12 -26.4%
C[C@H]1O[C@@H](n2cc(F)c(=O)[nH]c2=O)[C@H](O)[C@H]1O -2.28%
